In all, about 48,000 compounds went through this assay and about 550 (1.1%) were called active. Inconclusive results (about 4%) are left out. Rule as the data show it: active = potency below about 15 µM; inconclusive = mostly about 16 µM to 33 µM; inactive = weaker than that. Some of the results follow.
target: Lysosomal acid glucosylceramidase (Homo sapiens) (UniProt P04062); test: Glucocerebrosidase; conditions: purified enzyme, resorufin glucoside fluorescence (screen aimed at inhibitors), 20 min;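 also: the screen sought inhibitors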
UniProt P04062, sequence (P04062 whole entry, looked up): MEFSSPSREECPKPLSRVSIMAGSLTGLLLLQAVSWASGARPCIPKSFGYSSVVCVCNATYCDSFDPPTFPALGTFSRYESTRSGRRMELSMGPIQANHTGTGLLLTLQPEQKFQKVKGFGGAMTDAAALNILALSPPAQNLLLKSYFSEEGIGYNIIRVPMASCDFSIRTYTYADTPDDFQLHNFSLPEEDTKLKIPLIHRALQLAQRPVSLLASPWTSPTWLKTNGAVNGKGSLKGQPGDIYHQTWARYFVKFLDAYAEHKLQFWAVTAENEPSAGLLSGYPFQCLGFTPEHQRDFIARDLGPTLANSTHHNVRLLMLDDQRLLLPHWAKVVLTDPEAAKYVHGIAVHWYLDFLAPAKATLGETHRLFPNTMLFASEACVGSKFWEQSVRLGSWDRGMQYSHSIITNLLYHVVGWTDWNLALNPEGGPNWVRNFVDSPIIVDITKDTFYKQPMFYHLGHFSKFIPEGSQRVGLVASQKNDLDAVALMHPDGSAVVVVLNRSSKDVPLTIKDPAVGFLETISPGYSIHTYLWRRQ
How it was run: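 Normal human glucocerebrosidase (0.2 nM final) was assayed with resorufin β-D-glucopyranoside (30 uM final) in 50mM citric acid/KH2PO4, 10mM sodium taurocholate, 0.01% tween-20, pH 5.9. Compounds were titrated; fluorescence (Ex 548, Em 600) read after 20 min at RT.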
Potency is read from the fitted curve at half-maximal effect.

Potency, inactive:
CCn1c(SCC(=O)NCc2ccco2)nnc1-c1cccs1 > 76.9 µM
N#CCCCSc1nnnn1-c1cccc(Cl)c1 > 76.9 µM
N#Cc1cn(CCOc2ccccc2F)c2ccccc12 > 76.9 µM
Cc1ccc(-c2cn(S(=O)(=O)c3cccc4nsnc34)nc2N)cc1 > 76.9 µM
Cc1ccc(S(=O)(=O)N(CC(=O)N2CCOCC2)CC(=O)N2CCOCC2)cc1 > 76.9 µM
Cc1ccc(Cn2ccc(NC(=O)c3noc4c3CCCC4)n2)cc1 > 76.9 µM
CCN(Cc1cc2ccc(C)cc2[nH]c1=O)C(=O)c1cccnc1 > 76.9 µM
C#Cc1ccc(C(=O)Nc2cc(C(N)=O)ccc2N2CCOCC2)cc1 > 76.9 µM
O=C(COc1nc2ccccc2nc1N1CCOCC1)N1CCc2ccccc21 > 76.9 µM
N#CCSc1nc2c(cc1C#N)CCCC2 > 76.9 µM
Cn1c(=O)c2cnc(N3CCOCC3)nc2n(C)c1=O > 76.9 µM
CN(C)S(=O)(=O)c1ccc2nc(NC(=O)c3cccnc3)sc2c1 > 76.9 µM
O=C(NCc1cccs1)C1CCN(S(=O)(=O)c2ccc3c(c2)OCCO3)CC1 > 76.9 µM
C/C(=N\O)c1ccccc1C(=O)O > 76.9 µM
COc1ccc(C2C(C(=O)N3CCCC3)c3cc(OC)c(OC)cc3C(=O)N2C)cc1OC (stereo not given) > 76.9 µM
c1ccc(-n2nnnc2Oc2cccc3cccnc23)cc1 > 76.9 µM
CCCCCCNC(=O)C(C#N)c1nc2ccccc2nc1N1CCOCC1 (stereo not given) > 76.9 µM
O=C(NCCN1CCN(c2ccccc2)CC1)c1ccc(NC(=O)C2CCCO2)cc1 (stereo not given) > 76.9 µM
O=C(NCc1ccc2c(c1)OCO2)c1ccc(CN2CCOCC2)cc1 > 76.9 µM
COCCCNC(=O)c1ccc(N(C)S(=O)(=O)c2ccc(OC)cc2)cc1 > 76.9 µM
COc1cc(C)c(Cl)cc1S(=O)(=O)NCC1CCCO1 (stereo not given) > 76.9 µM
CC(=O)C1=C(C)OC(N)=C(C#N)C1c1ccco1 (stereo not given) > 76.9 µM
Cc1ccc(C2C=C(c3ccc4c(c3)OCO4)Nc3ncnn32)cc1 (stereo not given) > 76.9 µM
Cc1ccc(-c2nnc(CSc3nc(C)nc4sc(C)c(C)c34)o2)cc1 > 76.9 µM
Cn1c(SCC(=O)NC2CCCC2)nc2cccnc21 > 76.9 µM
COCCOC(=O)c1c(NC(=O)CN2CCOCC2)sc(C(N)=O)c1C > 76.9 µM
O=C(CCN1C(=O)c2ccccc2C1=O)NC1=NCCS1 > 76.9 µM
O=C(Cc1ccc(-c2ccccc2)cc1)N1CCOCC1 > 76.9 µM
Cn1c2c(c(=O)n(C)c1=O)C(c1ccc(Br)cc1)Nc1ccccc1O2 (stereo not given) > 76.9 µM
COc1cc(NC(=O)c2ccc(Cl)cc2)c(OC)cc1NC(=O)CN1CCOCC1 > 76.9 µM
CN(C(=O)COC(=O)c1ccccc1Nc1ccccc1)C1CCS(=O)(=O)C1 (stereo not given) > 76.9 µM
CCOC(=O)c1[nH]c(C)c(C(=O)N2CCN(C(=O)OCC)CC2)c1CC > 76.9 µM
N=c1n(CCO)c2ccccc2n1Cc1ccccc1Cl > 76.9 µM
COc1cc2c(cc1OC)CN(Cc1cc(=O)n3cc(C)ccc3n1)CC2 > 76.9 µM
CC(=O)Nc1nc2c(ncn2COCCOC(C)=O)c(=O)[nH]1 > 76.9 µM
COc1ccc2c(c1)-c1nc(NC(=O)c3ccco3)sc1CC2 > 76.9 µM
O=C(CSc1nc(N2CCCCC2)nc(N2CCCCC2)n1)NC1CCCCC1 > 76.9 µM
Cc1occc1C(=O)Nc1c(F)cc(F)cc1Br > 76.9 µM
Cc1ccc(CNC(=O)c2ccccc2NC(=O)CSc2nnnn2C)cc1 > 76.9 µM
CCOC(=O)c1[nH]c(COC(=O)c2ccccc2NC(=O)c2ccco2)c(C(=O)OCC)c1C > 76.9 µM
CCOC(=O)c1ccc(NS(=O)(=O)c2cc(C)ccc2OC)cc1 > 76.9 µM
Cc1ccc(S(=O)(=O)c2nc(-c3ccco3)oc2SCC(=O)NCC2CCCO2)cc1 (stereo not given) > 76.9 µM
CCCCCCC1/C(=N/O)CCC1C(=O)OC (stereo not given) > 76.9 µM
O=C1CC(c2ccc(S(=O)(=O)N3CCCCC3)cc2)CN1 (stereo not given) > 76.9 µM
N#C/C(C(=O)Oc1ccccc1)=C1\C=CC=CN1 > 76.9 µM
COC(=O)c1ccc(-c2cc(C(=O)O)c3cc4c(cc3n2)OCCO4)cc1 > 76.9 µM
CC1CCCCC1NC(=O)C1CCN(S(=O)(=O)N2CCOCC2)CC1 (stereo not given) > 76.9 µM
COc1ccc(C2C(C#N)=C(N)OC3=C2C(=O)CCC3)c(OC)c1OC (stereo not given) > 76.9 µM
CCC(C)NC(=O)C1CCN(S(=O)(=O)N2CCCC2)CC1 (stereo not given) > 76.9 µM
Cn1c(SCC(=O)N2CCCCCC2)nc2c([nH]c3ccccc32)c1=O > 76.9 µM
COc1ccc(C(C)=O)c2c(O)cccc12 > 76.9 µM
CCn1c(SCC(=O)NCC(=O)Nc2ccc(F)cc2)nnc1-c1cccs1 > 76.9 µM
O=C(c1ccco1)N1CCN(CCCCN2C(=O)c3ccccc3C2=O)CC1 > 76.9 µM
O=C(O)CCC(=O)N1CCC(C(=O)c2cccc(Cl)c2)CC1 > 76.9 µM
COc1ccccc1NC(=O)CSC1CC(=O)N(c2ccc3c(c2)OCO3)C1=O (stereo not given) > 76.9 µM
COc1ccc(-c2nnn(Cc3nc(N)nc(N4CCCCC4)n3)n2)cc1 > 76.9 µM
O=C1CSc2ccccc2N1Cc1ccc(F)cc1 > 76.9 µM
O=C(NCc1ccco1)c1cccnc1-c1nc2ccccc2s1 > 76.9 µM
O=C(CCCOc1ccccc1)N1CCc2ccccc2C1 > 76.9 µM
CCOC(=O)N1CCN(C2=Nc3cccc4cccc2c34)CC1 > 76.9 µM
Cc1ncoc1C(=O)Nc1ccc2c(c1)OCCO2 > 76.9 µM
CCOC(=O)Cn1nnnc1CN(Cc1ccc(OC)cc1)Cc1cc2cc(CC)ccc2[nH]c1=O > 76.9 µM
CCCc1cc(=O)[nH]c(SCC(=O)N2CCC(C(=O)OCC)CC2)n1 > 76.9 µM
CCOC(=O)N1CCN(c2nc3ccccc3nc2C(C#N)C(=O)NCCc2ccccc2)CC1 (stereo not given) > 76.9 µM
N=c1n(CCN2CCCCC2)c2ccccc2n1CC(O)c1cccc(Br)c1 (stereo not given) > 76.9 µM
COC(=O)c1ccc(COc2cc(O)c3c(c2)OC(C)(C)CC3=O)cc1 > 76.9 µM
CCN(CC)C(=O)C(C)OC(=O)COc1ccc(Cl)cc1C (stereo not given) > 76.9 µM
Nc1cc(S(=O)(=O)C(F)(F)F)ccc1C(=O)O > 76.9 µM
CC1(C)CC(=O)C2=C(C1)Oc1ncn(Cc3ccco3)c(=N)c1C2c1ccccc1 (stereo not given) > 76.9 µM
CCOC(=O)N1CCC(NC(=O)C2CCCN(S(=O)(=O)c3cccc4nsnc34)C2)CC1 (stereo not given) > 76.9 µM
CC(CCc1ccccc1)NC(=O)CN1CCN(Cc2ccccc2)C1=O (stereo not given) > 76.9 µM
COc1ccc(CC(=O)N2CCN(C(=O)Cc3ccc(OC)cc3)CC2)cc1 > 76.9 µM
NC(=O)CN(c1ccc(Cl)cc1)S(=O)(=O)c1ccccc1 > 76.9 µM
Cc1cc(NC(=O)NC(=O)c2cccc(OC(F)(F)C(F)F)c2)n[nH]1 > 76.9 µM
O=C1c2ccccc2NC(c2ccc3c(c2)OCO3)N1O (stereo not given) > 76.9 µM
CS(=O)(=O)N(CC(=O)Nc1ccc2c(c1)OCO2)Cc1ccc(Cl)cc1 > 76.9 µM
Cc1ccc(S(=O)(=O)N2CCN(C(=O)CCC(=O)NC3CCCc4ccccc43)CC2)cc1 (stereo not given) > 76.9 µM
C=CCNc1nc2c3ccccc3n(C(C)=O)c2s1 > 76.9 µM
CC(C)N1CC(O)=C(c2ccccc2)C1=N > 76.9 µM
Cc1ccc(S(=O)(=O)Cn2nnnc2C(C)N2CCN(C(=O)c3ccco3)CC2)cc1 (stereo not given) > 76.9 µM
Nc1ncnc2c1ncn2C1CCC(CO)C(O)C1 (stereo not given) > 76.9 µM
CC1CCc2c(C(=O)Oc3cccc(-n4cnnn4)c3)csc2C1 (stereo not given) > 76.9 µM
CCOC(=O)Cn1cnc2sc3c(c2c1=O)CCC3 > 76.9 µM
COc1ccc(C)cc1-n1c(SCC(=O)Nc2cc(C)on2)nc2sc(C)c(C)c2c1=O > 76.9 µM
O=C1NC(c2ccccc2Cl)Nc2ccccc21 (stereo not given) > 76.9 µM
COc1ccc(C(C(=O)NC2CCCC2)N(CCN(C)C)C(=O)c2snc(C(N)=O)c2N)cc1 (stereo not given) > 76.9 µM
CC(=O)c1cccc(NC(=O)CCNS(=O)(=O)c2cccc3nsnc23)c1 > 76.9 µM
CC1Cc2nc(SCC(=O)N3CCc4ccccc43)n(C)c(=O)c2S1 (stereo not given) > 76.9 µM
CCN(CCCNC(=O)CN1C(=O)COc2ccccc21)c1ccccc1 > 76.9 µM
CCc1c(C)nc2cc(-c3ccc(OC)c(OC)c3)nn2c1N1CCCC1 > 76.9 µM

Source: PubChem BioAssay AID360 (National Center for Advancing Translational Sciences (NCATS), 2006)
